Compound in the experiment: C=CC(=O)Nc1cccc(Nc2nc(NC3CCC(N(C)C)CC3)nc3c2ncn3C(C)C)c1 [WZ3105]
Kind of experiment: Viability of human cancer cell lines after 72 h of drug (GDSC screen). The following applies: top dose inferred. As to the method: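 Human cancer cell lines in 384-well plates, medium with 10% serum, drug for 72 h over a 256-fold dose range (nine 2-fold or five 4-fold steps up to the top dose). Adherent lines were fixed and stained with the nucleic acid dye Syto60, suspension lines read with resazurin; signal relative to control wells, capped at 0 and 100%. One two-parameter sigmoid per drug and line, fitted in a mixed model over all curves with the slope shared within a line.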

By IC50 is meant the dose at which the fit gives 50% viability; fits outside the tested doses are given as limits. AUC sums up the same curve from the lowest dose to the 256-fold higher top dose; values near 1 show little effect. A top dose marked as inferred was derived from the fitted curves, not read from the paper. Some results are limits rather than exact numbers.

Here are results for 49 cell lines from the supplement of paper PMC4967469.

The IC50 is the point on the concentration scale where inhibition reaches its midpoint. Regarding “MDA-MB-231 (breast, adherent, top dose 1.28 µM)”, the AUC is 0.754 and the IC50 was 0.455 µM.
For “MDA-MB-330 (breast, adherent, top dose 1.28 µM)”, the AUC stood at 0.785 and the IC50 was 0.632 µM.
For “MDA-MB-361 (breast, adherent, top dose 1.28 µM)”, the AUC was determined as 0.877 and the IC50 was determined as 1.27 µM.
In the case of “MDA-MB-415 (breast, adherent, top dose 1.28 µM)”, the AUC stood at 0.935 and the IC50 is over 1.28 µM.
Turning to “MDA-MB-436 (breast, adherent, top dose 1.28 µM)”, the AUC is 0.963 and the IC50 was over 1.28 µM.
Consider “MDA-MB-453 (breast, adherent, top dose 10.24 µM)”, for which the AUC is 0.38 and the IC50 was determined as 0.288 µM.
Regarding “MDA-MB-468 (breast, adherent, top dose 1.28 µM)”, the AUC was determined as 0.653 and the IC50 amounted to 0.209 µM.
As for “MDST8 (large intestine, adherent, top dose 1.28 µM)”, the AUC was 0.887 and the IC50 is over 1.28 µM.
As to “ME-1 (acute myeloid leukaemia, suspension, top dose 1.28 µM)”, the AUC is 0.959 and the IC50 was over 1.28 µM.
On the same counts, the results for “ME-180 (cervix, adherent, top dose 1.28 µM)” are 0.713 and 0.329 µM.
On the same counts, the results for “MEG-01 (chronic myeloid leukaemia, suspension, top dose 1.28 µM)” are 0.911 and over 1.28 µM.
For the cell line “MEL-JUSO (melanoma, adherent, top dose 1.28 µM)”, the AUC came to 0.615 and the IC50 turned out to be 0.173 µM.
With “MES-SA (uterus, adherent, top dose 1.28 µM)”, the AUC turned out to be 0.918 and the IC50 is over 1.28 µM.
Regarding “MFE-280 (endometrium, adherent, top dose 1.28 µM)”, the AUC stood at 0.888 and the IC50 was over 1.28 µM.
Turning to “MFE-296 (endometrium, adherent, top dose 1.28 µM)”, the AUC stood at 0.892 and the IC50 was over 1.28 µM.
With “MFE-319 (endometrium, adherent, top dose 1.28 µM)”, the AUC came out at 0.879 and the IC50 amounted to 1.24 µM.
“MFH-ino (soft tissue, adherent, top dose 1.28 µM)”: the AUC is 0.912 and the IC50 was over 1.28 µM.
On the same counts, the results for “MFM-223 (breast, adherent, top dose 1.28 µM)” are 0.86 and 1.05 µM.
“MG-63 (osteosarcoma, adherent, top dose 1.28 µM)”: the AUC amounted to 0.984 and the IC50 is over 1.28 µM.
For “MHH-ES-1 (Ewing sarcoma, adherent, top dose 1.28 µM)”, the AUC worked out at 0.446 and the IC50 is 0.0569 µM.
Turning to “MHH-NB-11 (neuroblastoma, adherent, top dose 1.28 µM)”, the AUC is 0.892 and the IC50 is over 1.28 µM.
For “MHH-PREB-1 (B-cell leukaemia, suspension, top dose 1.28 µM)”, in that order: 0.606 and 0.151 µM.
On to “MIA-PaCa-2 (pancreas, adherent, top dose 1.28 µM)”, for which the AUC came out at 0.926 and the half-inhibitory concentration (IC50) was over 1.28 µM.
As to “MKN1 (stomach, adherent, top dose 1.28 µM)”, the AUC was determined as 0.911 and the IC50 was over 1.28 µM.
For the cell line “MKN28 (stomach, adherent, top dose 1.28 µM)”, the AUC was 0.929 and the IC50 is over 1.28 µM.
On the same counts, the results for “MKN45 (stomach, adherent, top dose 1.28 µM)” are 0.82 and 0.999 µM.
As for “ML-1 (thyroid, adherent, top dose 1.28 µM)”, the AUC was 0.891 and the IC50 is over 1.28 µM.
Turning to “ML-2 (acute myeloid leukaemia, suspension, top dose 1.28 µM)”, the AUC is 0.556 and the IC50 came to 0.111 µM.
For “MLMA (hairy cell leukaemia, semi-adherent, top dose 1.28 µM)”, in that order: 0.489 and 0.0748 µM.
In the case of “MMAC-SF (melanoma, adherent, top dose 1.28 µM)”, the AUC was 0.859 and the IC50 came to 1.13 µM.
With “MN-60 (B-cell leukaemia, suspension, top dose 1.28 µM)”, the AUC came to 0.691 and the IC50 amounted to 0.281 µM.
For the cell line “MOG-G-CCM (glioma, adherent, top dose 1.28 µM)”, the AUC was determined as 0.794 and the IC50 was determined as 0.705 µM.
On to “MOG-G-UVW (glioma, adherent, top dose 1.28 µM)”, for which the AUC worked out at 0.794 and the IC50 turned out to be 0.57 µM.
On the same counts, the results for “MOLM-13 (acute myeloid leukaemia, suspension, top dose 1.28 µM)” are 0.176 and 0.00917 µM.
Take “MOLP-8 (myeloma, suspension, top dose 1.28 µM)”: the AUC came to 0.458 and the IC50 came out at 0.0619 µM.
With “MOLT-4 (lymphoblastic leukaemia, suspension, top dose 10.24 µM)”, the AUC amounted to 0.215 and the IC50 was determined as 0.116 µM.
In the case of “MOLT-13 (T-cell lymphoblastic leukaemia, suspension, top dose 1.28 µM)”, the AUC came out at 0.661 and the IC50 stood at 0.211 µM.
“MONO-MAC-6 (acute myeloid leukaemia, suspension, top dose 1.28 µM)”: the AUC was 0.505 and the IC50 was 0.0828 µM.
Consider “MPP-89 (mesothelioma, adherent, top dose 1.28 µM)”, for which the AUC was 0.974 and the IC50 is over 1.28 µM.
On the same counts, the results for “MRK-nu-1 (breast, suspension, top dose 1.28 µM)” are 0.838 and 0.768 µM.
On to “MS751 (cervix, adherent, top dose 1.28 µM)”, for which the AUC came to 0.902 and the IC50 was over 1.28 µM.
In the case of “MS-1 (small cell lung carcinoma, suspension, top dose 1.28 µM)”, the AUC came out at 0.9 and the IC50 is over 1.28 µM.
“MSTO-211H (mesothelioma, adherent, top dose 1.28 µM)”: the AUC was determined as 0.988 and the IC50 was over 1.28 µM.
As to “MV-4-11 (leukaemia, suspension, top dose 1.28 µM)”, the AUC is 0.275 and the IC50 was determined as 0.0211 µM.
Regarding “MY-M12 (leukaemia, suspension, top dose 1.28 µM)”, the AUC is 0.52 and the IC50 came to 0.0911 µM.
For the cell line “MZ1-PC (pancreas, adherent, top dose 1.28 µM)”, the AUC was 0.553 and the IC50 was found to be 0.115 µM.
For the cell line “MZ2-MEL (melanoma, adherent, top dose 1.28 µM)”, the AUC amounted to 0.739 and the IC50 worked out at 0.44 µM.
As for “MZ7-mel (melanoma, adherent, top dose 1.28 µM)”, the AUC turned out to be 0.692 and the IC50 stood at 0.283 µM.
Take “Mewo (melanoma, adherent, top dose 1.28 µM)”: the AUC came to 0.917 and the IC50 is over 1.28 µM.
